# In all, about 360,000 compounds went through this assay and about 11,000 (3.1%) were called active. This list was built around the results that the source calls inconclusive (neither active nor inactive); the mix of calls is not that of the screen. Calls come from the whole dose curve; as a rule, active = well fitted inhibition curve with a large enough effect; inconclusive = small, poorly fitted or top-dose-only effect; inactive = no such curve, though single readings can be large or run the other way. Potencies of inconclusive entries are left out as doubtful fits.
# Biological target: Schistosoma mansoni thioredoxin glutathione reductase (TGR) (UniProt Q962Y6)
# Experiment: qHTS Assay for the Inhibitors of Schistosoma Mansoni Peroxiredoxins; note: nearly all actives have a fitted effect of over 60% in size
# Conditions: purified TGR, DTNB reduction, TNB absorbance 405 nm; activity change, negative = inhibition: at 114 µM (top of the series) unless noted
# Summary of the method: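 TGR 20 nM + NADPH 100 uM (dispensed conc.), cpd preinc 15 min RT; start with NADPH (500 uM addition) then DTNB (15 mM addition). Kinetic TNB absorbance, 405 nm filter. Four-parameter Hill fit across titration.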
# % is set by controls: 0 for no effect and ±100 for the full control effect; potency is the fitted concentration of half-maximal effect; tags give direction and shape of the fitted curve.
SMILES,Potency,"activity change, negative = inhibition"
C/C(=N\Nc1nc(C)c(C)s1)c1ccc([N+](=O)[O-])cc1,active: 22.4 µM,
O=Nc1onc(-c2ccc([N+](=O)[O-])cc2)c1NO,,inactive: -5.72%
O=C(CCN1C(=O)C2CCCCC2C1=O)Nc1nc2ccc(F)cc2s1 (centres undefined),,inactive: -33.9%
Cc1ccc(OC(=O)COc2ccccc2C)c(-n2nc3ccccc3n2)c1,,inactive: -27%
Cc1ccc(C)c(S(=O)(=O)N2CCN(C(=O)/C=C/c3ccco3)CC2)c1,active: 3.98 µM,
O=C(NCCc1ccccc1)c1ccc(-c2ccccc2C(F)(F)F)o1,"inconclusive [inhibitor, partial curve]",
O=C(NCc1cccnc1)/C(=C/c1ccc(-c2ccc(Cl)cc2)o1)S(=O)(=O)c1ccccc1,active: 20 µM,
COc1ccc(-c2cc(OC(=O)c3ccccc3Cl)c3c(C)oc(C)c3c(=O)c2)cc1OC,"inconclusive [inhibitor, full curve, poor fit]",
COc1cc(OC)c(NS(=O)(=O)c2c(C)nc3sc(C)cn3c2=O)cc1Cl,,inactive: -3.84%
Cc1ccc(CN2CCCC(C(=O)c3cccc(C(F)(F)F)c3)C2)o1 (centres undefined),"inconclusive [inhibitor, partial curve]",
COc1ccccc1CCNC(=O)C(=O)NCC(c1cccs1)S(=O)(=O)c1ccc(C)cc1 (centres undefined),"inconclusive [inhibitor, partial curve]",
Cc1nc2ccccc2c2oc(C(=O)N3CC(C)CC(C)C3)cc12 (centres undefined),"inconclusive [inhibitor, single point]",
COC(=O)[C@@]1(Cc2ccccc2)[C@@H]2C(=CC(=O)[C@H]2CC(=O)C(=O)N(C)C)CN1C(=O)c1ccccc1,"inconclusive [inhibitor, partial curve]",
O=C(O)CCC1OC(=O)C(O)=C1c1ccccc1 (centres undefined),"inconclusive [inhibitor, partial curve]",
Cc1ccc(-c2cc(-c3ccc4c(c3)OCO4)c(C#N)c(N)n2)o1,active: 10 µM,
O=C(c1ccccc1)N1CCSC1=S,"inconclusive [inhibitor, full curve, poor fit]",
O=c1oc2ccc(C#CC3(O)CCCCC3)cc2cc1-n1cc(-c2ccsc2)nn1,"inconclusive [inhibitor, partial curve]",
S=C(NCCCN1CCOCC1)Nc1ccc(Cl)c(Cl)c1,"inconclusive [inhibitor, partial curve]",
C=C(C)/C=N/NC(=S)Nc1ccc(S(=O)(=O)N2CCOCC2)cc1,"inconclusive [inhibitor, full curve, poor fit]",
CCOC(=O)C1CCN(/C=C2/C(=O)NC(=O)N(c3cccc(C)c3C)C2=O)CC1,active: 8.91 µM,
C=CCNC1=C(Cl)C(=O)N(c2ccccc2Cl)C1=O,active: 44.7 µM,
Cc1ccccc1NC(=S)Nc1cccc2cnccc12,"inconclusive [inhibitor, partial curve]",

SMILES,Potency,"activity change, negative = inhibition"
O=C(Nc1ccccc1C(=O)NC1CC1)c1ccc([N+](=O)[O-])o1,"inconclusive [inhibitor, partial curve]",
O=C(N/N=C/c1ccc(N2CCOCC2)o1)c1cccc(C(F)(F)F)c1,active: 11.2 µM,
Nc1ccc2nc3c(=O)n(CCc4ccccc4)c(=O)[nH]c3nc2c1,"inconclusive [inhibitor, partial curve]",
COc1cc(NC(=O)c2cc(-c3ccc(C)cc3)on2)cc(OC)c1OC,,inactive: -0.0597%
Cc1ccc(CCCOC(=O)C[N+]2(C)CCOCC2)cc1,"inconclusive [inhibitor, partial curve]",
COC(=O)c1ccc(C2/C(=C(\O)c3cccc(OC)c3)C(=O)C(=O)N2CCCN2CCOCC2)cc1 (centres undefined),"inconclusive [inhibitor, partial curve]",
O=C(NCc1ccco1)c1ccccc1-c1ccccc1,"inconclusive [inhibitor, partial curve]",
O=C1CC(NC(=O)C(F)(F)F)c2cc3c(cc21)OCO3 (centres undefined),"inconclusive [inhibitor, single point]",
COc1ccc(C(=O)NC(=C(Cl)Cl)S(=O)(=O)c2ccc(C)cc2)cc1,"inconclusive [inhibitor, full curve]",
Nc1nnnn1/N=C/c1cc(Cl)ccc1O,,inactive: -8.29%
Cc1nn2c(C)c(C(=O)N3CCN(c4ccccc4)CC3)cnc2c1-c1ccccc1,"inconclusive [inhibitor, single point]",
COc1ccc(CCNC(=O)CCCn2c(=O)c3ccccc3n(Cc3ccc(C)cc3)c2=O)cc1OC,"inconclusive [inhibitor, single point]",
O=S(=O)(c1ccccc1)c1cnn2c(C(F)(F)F)cc(-c3ccccc3)nc12,"inconclusive [inhibitor, full curve]",
CN(Cc1ccno1)C(=O)CC1C(=O)NCCN1CC(c1ccccc1)c1ccccc1 (centres undefined),"inconclusive [inhibitor, partial curve]",
O=C(CCS(=O)(=O)c1cc(Br)cc2c1N(C(=O)C1CC1)CC2)N1CCN(c2ccc(F)cc2)CC1,,inactive: -17.5%
CCOCCCNC(=S)N(CCN(CC)CC)Cc1cc2cc3c(cc2[nH]c1=O)OCCO3,"inconclusive [inhibitor, partial curve]",
Cc1ccccc1NC1(C#N)CCCCC1,"inconclusive [inhibitor, single point]",
CCOc1cc2[nH]c(=O)n(CCCC(=O)NCc3ccco3)c(=O)c2cc1OCC,"inconclusive [inhibitor, single point]",
COc1ccc(-c2cc(C(=O)N3CCC4(CC3)OCCO4)c3ccccc3n2)cc1,,inactive: -7.5%
COc1ccc(-c2nc3c4cnn(-c5ccccc5F)c4ncn3n2)cc1,,inactive: 3.66%
CCC(C)(C)n1nnnc1C(c1cc2ccc(OC)cc2[nH]c1=O)N1CCc2ccccc21 (centres undefined),active: 35.5 µM,
Cc1ccc(Sc2ccc([N+](=O)[O-])cc2[N+](=O)[O-])nc1,"inconclusive [inhibitor, partial curve]",

# — PubChem BioAssay AID485364 (National Center for Advancing Translational Sciences (NCATS), 2010)
